# Assay results as given in the supplement of paper PMC8728848.
# This is one part of the list.
# B1: exo-alpha-sialidase (Propionibacterium acnes), Q6A7G1 (protein)
# chain: GSHMSGRAPAPVAATTQPKLVTGDITSTDQSGTNLFFGKKIVRNARGAIMKVDRTWPAAVPAPLPDVRADSSTRMLLGPVVDLAVNEHPEGVFYRIPALATASNGDLLASYDLRPGSAGDAPNPNSIVQRRSRDNGRTWGPQTVIHAGTPGRRKVGYSDPSYLVDPATGRILNFHVKSYDRGFATSEVGTDPDDRHVLHAEVSTSTDNGHTWTHRDITREITSDPTTRTRFVASGQGIALLHGPHAGRLIAQMTVRNSVGQQAQSIYSDDHGITWHAGNPVGRMMDENKVVELSDGTLMLNSRDAARSGRRKVAYSQDGGLTWGPVKLVDDLIDPTNNAQIIRAYPNARAGSAKARILLFTNARNATERVNGTLSVSCDDGRTWVSHQTYMPGEVGYTTAAVQSDGALGVLWERDGIRYSTIPMGWLNSVCPLAPSGRPTSGKPTSGTSLPPTAT
# Legend:
# Experiment in all cases: glycan array binding signal (z-score within array); higher = stronger binding
# Settings in all cases: glycan notation: IUPAC condensed, linker removed
# [1] = target: Fuc(a1-2)Gal
# In short: (§1)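 From the Consortium for Functional Glycomics database, 3228 arrays were curated, keeping only those whose protein sequence was available. Binding is given as a within-array Z-score averaged across arrays sharing a protein sequence and across linkers. Negative Z-scores can be read as non-binding.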
# [2] = target: Fuc(a1-2)Gal(b1-3)GalNAc
# In short: as §1
# [3] = target: Fuc(a1-2)Gal(b1-3)GalNAc(a1-3)[Fuc(a1-2)]Gal(b1-4)Glc
# In short: as §1
# [4] = target: Fuc(a1-2)Gal(b1-3)GalNAc(a1-3)[Fuc(a1-2)]Gal(b1-4)GlcNAc
# In short: as §1
# [5] = target: Fuc(a1-2)Gal(b1-3)GalNAc(b1-3)Gal
# In short: as §1
# [6] = target: Fuc(a1-2)Gal(b1-3)GalNAc(b1-3)Gal(a1-4)Gal(b1-4)Glc
# In short: as §1
# [7] = target: Fuc(a1-2)Gal(b1-3)GalNAc(b1-4)[Neu5Ac(a2-3)]Gal(b1-4)Glc
# In short: as §1
# [8] = target: Fuc(a1-2)Gal(b1-3)GlcNAc
# In short: as §1
# [9] = target: Fuc(a1-2)Gal(b1-3)GlcNAc(b1-2)Man(a1-3)[Fuc(a1-2)Gal(b1-3)GlcNAc(b1-2)Man(a1-6)]Man(b1-4)GlcNAc(b1-4)GlcNAc
# In short: as §1
# [10] = target: Fuc(a1-2)Gal(b1-3)GlcNAc(b1-3)Gal(b1-4)Glc
# In short: as §1
# [11] = target: Fuc(a1-2)Gal(b1-3)GlcNAc(b1-3)[Fuc(a1-3)[Gal(b1-4)]GlcNAc(b1-6)]Gal(b1-4)Glc
# In short: as §1
# [12] = target: Fuc(a1-2)Gal(b1-3)[Fuc(a1-4)]GlcNAc
# In short: as §1
# [13] = target: Fuc(a1-2)Gal(b1-3)[Fuc(a1-4)]GlcNAc(b1-2)Man(a1-3)[Fuc(a1-2)Gal(b1-3)[Fuc(a1-4)]GlcNAc(b1-2)Man(a1-6)]Man(b1-4)GlcNAc(b1-4)GlcNAc
# In short: as §1
# [14] = target: Fuc(a1-2)Gal(b1-3)[Fuc(a1-4)]GlcNAc(b1-3)[Fuc(a1-3)[Gal(b1-4)]GlcNAc(b1-6)]Gal(b1-4)Glc
# In short: as §1
# [15] = target: Fuc(a1-2)Gal(b1-3)[Fuc(a1-4)]GlcNAc(b1-3)[Gal(b1-4)GlcNAc(b1-6)]Gal(b1-4)Glc
# In short: as §1
# [16] = target: Fuc(a1-2)Gal(b1-4)Glc
# In short: as §1
# [17] = target: Fuc(a1-2)Gal(b1-4)Glc6S
# In short: as §1
# [18] = target: Fuc(a1-2)Gal(b1-4)GlcNAc
# In short: as §1
# [19] = target: Fuc(a1-2)Gal(b1-4)GlcNAc(b1-2)Man(a1-3)[Fuc(a1-2)Gal(b1-4)GlcNAc(b1-2)Man(a1-6)]Man(b1-4)GlcNAc(b1-4)GlcNAc
# In short: as §1
# [20] = target: Fuc(a1-2)Gal(b1-4)GlcNAc(b1-3)Gal(b1-4)GlcNAc
# In short: as §1
# [21] = target: Fuc(a1-2)Gal(b1-4)GlcNAc(b1-3)Gal(b1-4)GlcNAc(b1-3)Gal(b1-4)GlcNAc
# In short: as §1
# [22] = target: Fuc(a1-2)Gal(b1-4)GlcNAc(b1-3)GalNAc
# In short: as §1
# [23] = target: Fuc(a1-2)Gal(b1-4)GlcNAc6S
# In short: as §1
# [24] = target: Fuc(a1-2)Gal(b1-4)[Fuc(a1-3)]GlcNAc
# In short: as §1
# [25] = target: Fuc(a1-2)Gal(b1-4)[Fuc(a1-3)]GlcNAc(b1-2)Man(a1-3)[Fuc(a1-2)Gal(b1-4)[Fuc(a1-3)]GlcNAc(b1-2)Man(a1-6)]Man(b1-4)GlcNAc(b1-4)GlcNAc
# In short: as §1
# [26] = target: Fuc(a1-2)Gal(b1-4)[Fuc(a1-3)]GlcNAc(b1-3)Gal(b1-4)[Fuc(a1-3)]GlcNAc
# In short: as §1
# [27] = target: Fuc(a1-2)Gal(b1-4)[Fuc(a1-3)]GlcNAc(b1-3)Gal(b1-4)[Fuc(a1-3)]GlcNAc(b1-3)Gal(b1-4)[Fuc(a1-3)]GlcNAc
# In short: as §1
# [28] = target: Fuc(a1-2)Gal6S(b1-4)Glc
# In short: as §1
# [29] = target: Fuc(a1-2)Gal6S(b1-4)Glc6S
# In short: as §1
# [30] = target: Fuc(a1-2)Gal6S(b1-4)GlcNAc
# In short: as §1
# [31] = target: Fuc(a1-2)[Gal(a1-3)]Gal
# In short: as §1
# [32] = target: Fuc(a1-2)[Gal(a1-3)]Gal(b1-3)GlcNAc
# In short: as §1
# [33] = target: Fuc(a1-2)[Gal(a1-3)]Gal(b1-3)GlcNAc(b1-2)Man(a1-3)[Fuc(a1-2)[Gal(a1-3)]Gal(b1-3)GlcNAc(b1-2)Man(a1-6)]Man(b1-4)GlcNAc(b1-4)GlcNAc
# In short: as §1
# [34] = target: Fuc(a1-2)[Gal(a1-3)]Gal(b1-4)Glc
# In short: as §1
# [35] = target: Fuc(a1-2)[Gal(a1-3)]Gal(b1-4)GlcNAc
# In short: as §1
# [36] = target: Fuc(a1-2)[Gal(a1-3)]Gal(b1-4)GlcNAc(b1-2)Man(a1-3)[Fuc(a1-2)[Gal(a1-3)]Gal(b1-4)GlcNAc(b1-2)Man(a1-6)]Man(b1-4)GlcNAc(b1-4)GlcNAc
# In short: as §1
# [37] = target: Fuc(a1-2)[Gal(a1-3)]Gal(b1-4)[Fuc(a1-3)]GlcNAc
# In short: as §1
# [38] = target: Fuc(a1-2)[Gal(a1-4)]Gal(b1-4)GlcNAc
# In short: as §1
# [39] = target: Fuc(a1-2)[GalNAc(a1-3)]Gal
# In short: as §1
# [40] = target: Fuc(a1-2)[GalNAc(a1-3)]Gal(b1-3)GalNAc(a1-3)[Fuc(a1-2)]Gal(b1-4)GlcNAc
# In short: as §1
# [41] = target: Fuc(a1-2)[GalNAc(a1-3)]Gal(b1-3)GlcNAc
# In short: as §1
# [42] = target: Fuc(a1-2)[GalNAc(a1-3)]Gal(b1-3)GlcNAc(b1-2)Man(a1-3)[Fuc(a1-2)[GalNAc(a1-3)]Gal(b1-3)GlcNAc(b1-2)Man(a1-6)]Man(b1-4)GlcNAc(b1-4)GlcNAc
# In short: as §1
# [43] = target: Fuc(a1-2)[GalNAc(a1-3)]Gal(b1-4)Glc
# In short: as §1
# [44] = target: Fuc(a1-2)[GalNAc(a1-3)]Gal(b1-4)GlcNAc
# In short: as §1
# [45] = target: Fuc(a1-2)[GalNAc(a1-3)]Gal(b1-4)GlcNAc(b1-2)Man(a1-3)[Fuc(a1-2)[GalNAc(a1-3)]Gal(b1-4)GlcNAc(b1-2)Man(a1-6)]Man(b1-4)GlcNAc(b1-4)GlcNAc
# In short: as §1
# [46] = target: Fuc(a1-2)[GalNAc(a1-3)]Gal(b1-4)GlcNAc(b1-3)Gal(b1-4)GlcNAc
# In short: as §1
# [47] = target: Fuc(a1-2)[GalNAc(a1-3)]Gal(b1-4)GlcNAc(b1-3)Gal(b1-4)GlcNAc(b1-3)Gal(b1-4)GlcNAc
# In short: as §1
# [48] = target: Fuc(a1-2)[GalNAc(a1-3)]Gal(b1-4)[Fuc(a1-3)]GlcNAc
# In short: as §1
# [49] = target: Fuc(a1-2)[GalNAc(a1-4)]Gal(b1-4)GlcNAc
# In short: as §1
# [50] = target: Fuc(a1-2)[GalNAc(b1-3)]Gal
# In short: as §1
# [51] = target: Fuc(a1-3)GlcNAc
# In short: as §1
# [52] = target: Fuc(a1-3)[Gal(b1-4)]Glc6S
# In short: as §1
# [53] = target: Fuc(a1-3)[Gal(b1-4)]GlcNAc
# In short: as §1
# [54] = target: Fuc(a1-3)[Gal(b1-4)]GlcNAc(b1-2)Man(a1-3)[Fuc(a1-3)[Gal(b1-4)]GlcNAc(b1-2)Man(a1-6)]Man(b1-4)GlcNAc(b1-4)GlcNAc
# In short: as §1
# [55] = target: Fuc(a1-3)[Gal(b1-4)]GlcNAc(b1-3)Gal(b1-3)[Fuc(a1-4)]GlcNAc
# In short: as §1
# [56] = target: Fuc(a1-3)[Gal(b1-4)]GlcNAc(b1-3)GalNAc
# In short: as §1
# [57] = target: Fuc(a1-3)[Gal(b1-4)]GlcNAc(b1-4)Gal(b1-4)[Fuc(a1-3)]GlcNAc
# In short: as §1
# [58] = target: Fuc(a1-3)[Gal(b1-4)]GlcNAc(b1-4)Gal(b1-4)[Fuc(a1-3)]GlcNAc(b1-4)Gal(b1-4)[Fuc(a1-3)]GlcNAc
# In short: as §1
# [59] = target: Fuc(a1-3)[Gal(b1-4)]GlcNAc(b1-6)[Gal(b1-3)GlcNAc(b1-3)]Gal(b1-4)Glc
# In short: as §1
# [60] = target: Fuc(a1-3)[Gal(b1-4)]GlcNAc6S
# In short: as §1
binder,measurement,setting,value
B1,glycan array binding signal (z-score),[1],-0.357
same,glycan array binding signal (z-score),[2],-0.3
same,glycan array binding signal (z-score),[3],-0.335
same,glycan array binding signal (z-score),[4],-0.316
same,glycan array binding signal (z-score),[5],-0.355
same,glycan array binding signal (z-score),[6],-0.278
same,glycan array binding signal (z-score),[7],-0.338
same,glycan array binding signal (z-score),[8],-0.349
same,glycan array binding signal (z-score),[9],-0.374
same,glycan array binding signal (z-score),[10],-0.359
same,glycan array binding signal (z-score),[11],-0.336
same,glycan array binding signal (z-score),[12],-0.355
same,glycan array binding signal (z-score),[13],-0.03
same,glycan array binding signal (z-score),[14],-0.361
same,glycan array binding signal (z-score),[15],-0.368
same,glycan array binding signal (z-score),[16],-0.361
same,glycan array binding signal (z-score),[17],-0.256
same,glycan array binding signal (z-score),[18],-0.347
same,glycan array binding signal (z-score),[19],-0.361
same,glycan array binding signal (z-score),[20],-0.312
same,glycan array binding signal (z-score),[21],-0.337
same,glycan array binding signal (z-score),[22],-0.353
same,glycan array binding signal (z-score),[23],-0.306
same,glycan array binding signal (z-score),[24],-0.316
same,glycan array binding signal (z-score),[25],-0.166
same,glycan array binding signal (z-score),[26],-0.365
same,glycan array binding signal (z-score),[27],-0.348
same,glycan array binding signal (z-score),[28],-0.3
same,glycan array binding signal (z-score),[29],-0.353
same,glycan array binding signal (z-score),[30],-0.332
same,glycan array binding signal (z-score),[31],-0.346
same,glycan array binding signal (z-score),[32],-0.322
same,glycan array binding signal (z-score),[33],-0.375
same,glycan array binding signal (z-score),[34],-0.374
same,glycan array binding signal (z-score),[35],-0.345
same,glycan array binding signal (z-score),[36],-0.343
same,glycan array binding signal (z-score),[37],-0.208
same,glycan array binding signal (z-score),[38],-0.352
same,glycan array binding signal (z-score),[39],-0.332
same,glycan array binding signal (z-score),[40],-0.319
same,glycan array binding signal (z-score),[41],-0.343
same,glycan array binding signal (z-score),[42],-0.369
same,glycan array binding signal (z-score),[43],-0.31
same,glycan array binding signal (z-score),[44],-0.342
same,glycan array binding signal (z-score),[45],-0.343
same,glycan array binding signal (z-score),[46],-0.368
same,glycan array binding signal (z-score),[47],-0.335
same,glycan array binding signal (z-score),[48],-0.223
same,glycan array binding signal (z-score),[49],-0.353
same,glycan array binding signal (z-score),[50],-0.308
same,glycan array binding signal (z-score),[51],-0.3
same,glycan array binding signal (z-score),[52],-0.356
same,glycan array binding signal (z-score),[53],-0.339
same,glycan array binding signal (z-score),[54],-0.301
same,glycan array binding signal (z-score),[55],-0.358
same,glycan array binding signal (z-score),[56],-0.21
same,glycan array binding signal (z-score),[57],-0.311
same,glycan array binding signal (z-score),[58],-0.365
same,glycan array binding signal (z-score),[59],-0.335
same,glycan array binding signal (z-score),[60],-0.351
